# Test results from the supplement of paper PMC8728848.
# The other results are listed elsewhere or left out.
# B1: Cohesin-mDCIR (Macaca mulatta) (protein)
# chain: GLDDLDAVRIKVDTVNAKPGDTVRIPVRFSGIPSKGIANCDFVYSYDPNVLEIIEIEPGDIIVDPNPDKSFDTAVYPDRKIIVFLFAEDSGTGAYAITKDGVFATIVAKVKEGAPNGLSVIKFVEVGGFANNDLVEQKTQFFDGGVNVGDTTEPATPTTPVTTPTTTDDLDAASFQKYSQLLEKMTTKDLVHTTLECVKKNMTTEETAWSCCPKNWKPFSSNCYFISTESASWQKSEKDCARMEAHLLVINTREEQDFIFQNLQEESAYFVGLSDPEGQRHWQWVDRTPYNESSTFWHPHEPSDPDERCVVLNFRKTPKRWGWNDVHCIVHQRSVCEMMKIHLHHHHHH
# Tests used:
# Test in all cases: glycan array binding signal (z-score within array); higher = stronger binding
# Settings in all cases: glycan notation: IUPAC condensed, linker removed
# [1] = target: Gal(a1-3)[Gal(a1-4)]Gal(b1-4)GlcNAc
# Summary of the method: (§1)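 Glycan array data were curated from 3228 arrays in the Consortium for Functional Glycomics database and kept only where the protein sequence was available. Glycan names were converted to IUPAC-condensed notation, and columns mapping to the same glycan were averaged. The binding signal is a within-array Z-score, averaged across arrays of the same protein sequence at different concentrations or buffers and across linkers. Negative Z-scores can be read as non-binding.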
# [2] = target: Gal(a1-4)Gal(b1-3)GlcNAc(b1-2)Man(a1-3)[Gal(a1-4)Gal(b1-3)GlcNAc(b1-2)Man(a1-6)]Man(b1-4)GlcNAc(b1-4)GlcNAc
# Summary of the method: as §1
# Gal(a1-4)Gal(b1-4)Glc = target: Gal(a1-4)Gal(b1-4)Glc
# Summary of the method: as §1
# Gal(a1-4)Gal(b1-4)GlcNAc = target: Gal(a1-4)Gal(b1-4)GlcNAc
# Summary of the method: as §1
# [3] = target: Gal(a1-4)Gal(b1-4)GlcNAc(b1-2)Man(a1-3)[Gal(a1-4)Gal(b1-4)GlcNAc(b1-2)Man(a1-6)]Man(b1-4)GlcNAc(b1-4)GlcNAc
# Summary of the method: as §1
# [4] = target: Gal(a1-4)Gal(b1-4)GlcNAc(b1-3)Gal(b1-4)Glc
# Summary of the method: as §1
# Gal(a1-4)GlcNAc = target: Gal(a1-4)GlcNAc
# Summary of the method: as §1
# Gal(a1-6)Glc = target: Gal(a1-6)Glc
# Summary of the method: as §1
# Gal(b1-2)Gal = target: Gal(b1-2)Gal
# Summary of the method: as §1
# Gal(b1-3)Gal = target: Gal(b1-3)Gal
# Summary of the method: as §1
# Gal(b1-3)Gal(b1-4)GlcNAc = target: Gal(b1-3)Gal(b1-4)GlcNAc
# Summary of the method: as §1
# Gal(b1-3)GalNAc = target: Gal(b1-3)GalNAc
# Summary of the method: as §1
# [5] = target: Gal(b1-3)GalNAc(a1-3)[Fuc(a1-2)]Gal(b1-4)Glc
# Summary of the method: as §1
# [6] = target: Gal(b1-3)GalNAc(a1-3)[Fuc(a1-2)]Gal(b1-4)GlcNAc
# Summary of the method: as §1
# Gal(b1-3)GalNAc(b1-3)Gal = target: Gal(b1-3)GalNAc(b1-3)Gal
# Summary of the method: as §1
# [7] = target: Gal(b1-3)GalNAc(b1-3)Gal(a1-4)Gal(b1-4)Glc
# Summary of the method: as §1
# [8] = target: Gal(b1-3)GalNAc(b1-4)Gal(b1-4)Glc
# Summary of the method: as §1
# [9] = target: Gal(b1-3)GalNAc(b1-4)[Neu5Ac(a2-3)]Gal(b1-4)Glc
# Summary of the method: as §1
# Gal(b1-3)GlcNAc = target: Gal(b1-3)GlcNAc
# Summary of the method: as §1
# [10] = target: Gal(b1-3)GlcNAc(a1-3)Gal(b1-4)GlcNAc
# Summary of the method: as §1
# [11] = target: Gal(b1-3)GlcNAc(a1-6)Gal(b1-4)GlcNAc
# Summary of the method: as §1
# Gal(b1-3)GlcNAc(b1-2)Man = target: Gal(b1-3)GlcNAc(b1-2)Man
# Summary of the method: as §1
# [12] = target: Gal(b1-3)GlcNAc(b1-2)Man(a1-3)[Gal(b1-3)GlcNAc(b1-2)Man(a1-6)]Man(b1-4)GlcNAc(b1-4)GlcNAc
# Summary of the method: as §1
# [13] = target: Gal(b1-3)GlcNAc(b1-2)Man(a1-3)[Gal(b1-3)GlcNAc(b1-2)Man(a1-6)]Man(b1-4)GlcNAc(b1-4)[Fuc(a1-6)]GlcNAc
# Summary of the method: as §1
# [14] = target: Gal(b1-3)GlcNAc(b1-2)Man(a1-3)[GlcNAc(b1-4)][Gal(b1-3)GlcNAc(b1-2)Man(a1-6)]Man(b1-4)GlcNAc(b1-4)GlcNAc
# Summary of the method: as §1
# [15] = target: Gal(b1-3)GlcNAc(b1-2)[Gal(b1-3)GlcNAc(b1-6)]Man(a1-6)[Gal(b1-3)GlcNAc(b1-2)Man(a1-3)]Man(b1-4)GlcNAc(b1-4)GlcNAc
# Summary of the method: as §1
# [16] = target: Gal(b1-3)GlcNAc(b1-3)Gal(b1-3)GlcNAc
# Summary of the method: as §1
# [17] = target: Gal(b1-3)GlcNAc(b1-3)Gal(b1-4)Glc
# Summary of the method: as §1
# [18] = target: Gal(b1-3)GlcNAc(b1-3)Gal(b1-4)GlcNAc
# Summary of the method: as §1
# [19] = target: Gal(b1-3)GlcNAc(b1-3)Gal(b1-4)GlcNAc(b1-2)Man(a1-3)[Gal(b1-3)GlcNAc(b1-3)Gal(b1-4)GlcNAc(b1-2)Man(a1-6)]Man(b1-4)GlcNAc(b1-4)GlcNAc
# Summary of the method: as §1
# [20] = target: Gal(b1-3)GlcNAc(b1-3)Gal(b1-4)GlcNAc(b1-2)[Gal(b1-3)GlcNAc(b1-3)Gal(b1-4)GlcNAc(b1-6)]Man(a1-6)[Gal(b1-3)GlcNAc(b1-3)Gal(b1-4)GlcNAc(b1-2)Man(a1-3)]Man(b1-4)GlcNAc(b1-4)[Fuc(a1-6)]GlcNAc
# Summary of the method: as §1
# [21] = target: Gal(b1-3)GlcNAc(b1-3)Gal(b1-4)GlcNAc(b1-3)Gal(b1-4)GlcNAc(b1-2)[Gal(b1-3)GlcNAc(b1-3)Gal(b1-4)GlcNAc(b1-3)Gal(b1-4)GlcNAc(b1-6)]Man(a1-6)[Gal(b1-3)GlcNAc(b1-3)Gal(b1-4)GlcNAc(b1-3)Gal(b1-4)GlcNAc(b1-2)Man(a1-3)]Man(b1-4)GlcNAc(b1-4)[Fuc(a1-6)]GlcNAc
# Summary of the method: as §1
# [22] = target: Gal(b1-3)GlcNAc(b1-3)Gal(b1-4)GlcNAc(b1-6)[Gal(b1-3)GlcNAc(b1-3)]Gal(b1-4)Glc
# Summary of the method: as §1
# [23] = target: Gal(b1-3)GlcNAc(b1-3)Gal(b1-4)[Fuc(a1-3)]GlcNAc
# Summary of the method: as §1
# [24] = target: Gal(b1-3)GlcNAc(b1-3)Gal(b1-4)[Fuc(a1-3)]GlcNAc(b1-6)[Gal(b1-3)GlcNAc(b1-3)]Gal(b1-4)Glc
# Summary of the method: as §1
# [25] = target: Gal(b1-3)GlcNAc(b1-3)GalNAc
# Summary of the method: as §1
# [26] = target: Gal(b1-3)GlcNAc(b1-6)Gal(b1-4)GlcNAc
# Summary of the method: as §1
# [27] = target: Gal(b1-3)GlcNAc(b1-6)GalNAc
# Summary of the method: as §1
binder,measurement,setting,value
B1,glycan array binding signal (z-score),[1],-0.415
same,glycan array binding signal (z-score),[2],-0.005
same,glycan array binding signal (z-score),Gal(a1-4)Gal(b1-4)Glc,-0.375
same,glycan array binding signal (z-score),Gal(a1-4)Gal(b1-4)GlcNAc,-0.244
same,glycan array binding signal (z-score),[3],-0.307
same,glycan array binding signal (z-score),[4],-0.348
same,glycan array binding signal (z-score),Gal(a1-4)GlcNAc,0.225
same,glycan array binding signal (z-score),Gal(a1-6)Glc,-0.11
same,glycan array binding signal (z-score),Gal(b1-2)Gal,2.33
same,glycan array binding signal (z-score),Gal(b1-3)Gal,0.098
same,glycan array binding signal (z-score),Gal(b1-3)Gal(b1-4)GlcNAc,-0.416
same,glycan array binding signal (z-score),Gal(b1-3)GalNAc,-0.192
same,glycan array binding signal (z-score),[5],-0.279
same,glycan array binding signal (z-score),[6],-0.227
same,glycan array binding signal (z-score),Gal(b1-3)GalNAc(b1-3)Gal,-0.403
same,glycan array binding signal (z-score),[7],-0.273
same,glycan array binding signal (z-score),[8],-0.429
same,glycan array binding signal (z-score),[9],-0.325
same,glycan array binding signal (z-score),Gal(b1-3)GlcNAc,-0.069
same,glycan array binding signal (z-score),[10],-0.372
same,glycan array binding signal (z-score),[11],-0.186
same,glycan array binding signal (z-score),Gal(b1-3)GlcNAc(b1-2)Man,0.185
same,glycan array binding signal (z-score),[12],-0.341
same,glycan array binding signal (z-score),[13],-0.271
same,glycan array binding signal (z-score),[14],-0.285
same,glycan array binding signal (z-score),[15],-0.369
same,glycan array binding signal (z-score),[16],-0.43
same,glycan array binding signal (z-score),[17],-0.363
same,glycan array binding signal (z-score),[18],-0.249
same,glycan array binding signal (z-score),[19],-0.022
same,glycan array binding signal (z-score),[20],-0.123
same,glycan array binding signal (z-score),[21],0.116
same,glycan array binding signal (z-score),[22],-0.392
same,glycan array binding signal (z-score),[23],0.304
same,glycan array binding signal (z-score),[24],-0.45
same,glycan array binding signal (z-score),[25],-0.443
same,glycan array binding signal (z-score),[26],-0.18
same,glycan array binding signal (z-score),[27],3.16
